Experimental data as given in a collection of fitness landscapes (doi:10.1126/science.1257360).
The list shows a part of the results.

B1: PhoQ; a variant is named by its letters at X, in order, P23837 (parent)
chain: MKKLLRLFFPLSLRVRFLLATAAVVLVLSLAYGMVALIGYSVSFDKTTFRLLRGESNLFYTLAKWENNKLHVELPENIDKQSPTMTLIYDENGQLLWAQRDVPWLMKMIQPDWLKSNGFHEIEADVNDTSLLLSGDHSIQQQLQEVREDDDDAEMTHSVAVNVYPATSRMPKLTIVVVDTIPVELKSSYMVWSWFIYVLSANLLLVIPLLWVAAWWSLRPIEALAKEVRELEEHNRELLNPATTRELTSLVRNLNRLLKSERERYDKYRTTLTDLTHSLKTPLXXLQXXLRSLRSEKMSVSDAEPVMLEQISRISQQIGYYLHRASMRGGTLLSRELHPVAPLLDNLTSALNKVYQRKGVNISLDISPEISFVGEQNDFVEVMGNVLDNACKYCLEFVEISARQTDEHLYIVVEDDGPGIPLSKREVIFDRGQRVDTLRPGQGVGLAVAREITEQYEGKIVAGESMLGGARMEVIFGRQHSAPKDE

Variants of: B1
Assay: enrichment ratio after two sorts for PhoP signalling (ratio (wild type AVST 3.29)); higher = more functional
Settings: with PhoP (E. coli)

Variant | enrichment ratio
FGNA | ≤ 0.25
HHIG | ≤ 0.25
TKAS | 9.15
TATE | ≤ 0.25
WHRC | ≤ 0.25
NQWT | ≤ 0.25
MYRF | ≤ 0.25
REFE | ≤ 0.25
KIAA | ≤ 0.25
RKIL | ≤ 0.25
DTAY | ≤ 0.25
NHIH | ≤ 0.25
DLGA | 0.566
PFIV | ≤ 0.25
MHAY | ≤ 0.25
WGDE | ≤ 0.25
WYQH | ≤ 0.25
PIFR | ≤ 0.25
LAPC | ≤ 0.25
TKTY | ≤ 0.25
AKVK | ≤ 0.25
RAVY | ≤ 0.25
PVYP | ≤ 0.25
RCLN | ≤ 0.25
MILP | ≤ 0.25
TVAC | 7.24

Variant | enrichment ratio
ISVT | 0.441
EHNC | ≤ 0.25
RPWN | ≤ 0.25
PRSM | ≤ 0.25
SPSA | ≤ 0.25
DFPC | ≤ 0.25
WGYI | ≤ 0.25
FVLN | 2.59
DRWH | ≤ 0.25
YLDW | ≤ 0.25
GRLC | ≤ 0.25
WELW | ≤ 0.25
EPSS | ≤ 0.25
GFFG | ≤ 0.25
NAWP | ≤ 0.25
AYKS | ≤ 0.25
QLIW | ≤ 0.25
HPLV | ≤ 0.25
IVFW | ≤ 0.25
WAFM | ≤ 0.25
ELCT | ≤ 0.25
DDWD | ≤ 0.25
HFAF | ≤ 0.25
LENG | ≤ 0.25
LLQS | ≤ 0.25
WSFD | ≤ 0.25

Variant | enrichment ratio
KMMW | ≤ 0.25
WHWV | ≤ 0.25
SFAG | 0.768
ILPY | ≤ 0.25
AEHN | ≤ 0.25
IMKH | ≤ 0.25
RTMD | ≤ 0.25
QIYS | 3.96
GIGW | 16
SFFK | ≤ 0.25
FDAD | ≤ 0.25
NLHK | ≤ 0.25
YAFQ | ≤ 0.25
FNQA | ≤ 0.25
MIKL | ≤ 0.25
PPIP | ≤ 0.25
DKHA | ≤ 0.25
VWTP | ≤ 0.25
ASMS | 5.31
PRDR | ≤ 0.25
QSLD | ≤ 0.25
TPPC | ≤ 0.25
EEPH | ≤ 0.25
NFWI | ≤ 0.25
